# The other results are listed elsewhere or left out. Construct or isoform of the protein are uncertain.
# Target: GST-SBP-ILF3 (Homo sapiens) (UniProt Q12906)
# Assay: targeted RNA Bind-n-Seq
# Settings: RBNS binding buffer: 25 mM Tris pH 7.5, 150 mM KCl, 3 mM MgCl2, 0.1% Tween, 0.5 mg/mL BSA, 1 mM DTT; 27 nM protein, 750 pM RNA pool; temperature not stated; high values mean tight binding; sequences stand for … in GGGUAAAAGCGAGGUGAA…CGGGACAAGUAUUAUGGG
row,Sequence,binding signal (log2 fold change)
1,GUUGUGUGUGUUGGACUCUAACACACGCGA [gtspaired],-0.588
2,UUUUUUUUUUGAGACGGACGCCGUCUCCAG [tttttgagapaired],0.576
3,UUUUUUUUUUGAGACCGUCACGGUCUCCUA [tttttgagapaired],0.494
4,UUUUUUUUUUGAGAUGGGAACUAUCUUCUA [tttttgagapaired],0.24
5,UUUUUUUUUUGAGAUCGAGACGAUUUCCAG [tttttgagapaired],0.187
6,GUGUGUGGUGUUGGCUUCUAACACCAUAUA [gtspaired],-0.746
7,UUUUUUUUUUGAGAACGACGCGUUCUCCAG [tttttgagapaired],0.37
8,GUGGUGUGUGUUGGAAUCUAACACACAUCG [gtspaired],-0.962
9,UUUUUUUUUUGAGACGGGAUCUGUCUCCAG [tttttgagapaired],0.511
10,UUUUUUUUUUGAGAUGGUAUCCAUCUCCGG [tttttgagapaired],0.0341
11,UUUUUUUUUUGAGACCGGACCGGUCUCCAG [tttttgagapaired],0.937
12,GUGUGUGGUGUUGGAUCCUAACACCAUACG [gtspaired],-0.745
13,GUGUGUUGUGUUGGAUUCUAACACAGCGCG [gtspaired],-0.59
14,UUUUUUUUUUGAGACCGGUUCGGUCUUCUA [tttttgagapaired],0.418
15,GUGGUGUGUGUUGGCUCCUAACACACAUCA [gtspaired],-0.217
16,GUGUGGUGUGUUGGACCCUAACACACCGCA [gtspaired],-0.203
17,UUUUUUUUUUGAGACUGGGACAGUCUCCUA [tttttgagapaired],0.119
18,UUUUUUUUUUGAGACGGCAACCGUUUCCGG [tttttgagapaired],0.654
19,GUUGGUGGUGUUGGUCCCUAACACCAUCAA [gtspaired],-0.575
20,UUUUUUUUUUGAGACGGGCGCCGUCUCCGG [tttttgagapaired],0.632
21,UUUUUUUUUUGAGAGCGAGACGCUCUCCAG [tttttgagapaired],-0.0979
22,UUUUUUUUUUGAGAGGGCGCCCCUCUCCAG [tttttgagapaired],0.764
23,UUUUUUUUUUGAGAGCGGUGCGUUCUCCAG [tttttgagapaired],0.389
24,UUUUUUUUUUGAGACCGUUUCGGUCUCCGG [tttttgagapaired],0.313
25,UUCUCUCUUCCUCCAGGGGAGGAGGAGGGA [ctspaired],-0.16
26,GUGUGGUGUGUUGGCGCCUAACACAUCGCA [gtspaired],-0.538

row,Sequence,binding signal (log2 fold change)
1,UUUUUUUUUUGAGAGGGUACCCCUCUCCAG [tttttgagapaired],0.225
2,UUUUUUUUUUGAGAUGGCAGCUAUCUCCGG [tttttgagapaired],0.466
3,UUUUUUUUUUGAGACGGAAGCUGUCUCCUA [tttttgagapaired],0.653
4,GUGGUUGGUGUUGGCACCUAACACCGACCG [gtspaired],-0.467
5,UUUUUUUUUUGAGAACGAAACGUUCUCCUA [tttttgagapaired],-0.304
6,UUUUUUUUUUGAGAGCGGGACGCUCUCCGG [tttttgagapaired],0.0594
7,GUGUGUUGUGUUGGUAUCUAACACAGCGCG [gtspaired],-0.814
8,GUGUGUUGUGUUGGCGUCUAACACAGCACA [gtspaired],-0.428
9,UUUUUUUUUUGAGAUCGAAGCGAUCUCCUA [tttttgagapaired],-0.189
10,GUGUGGUGUGUUGGAGUCUAACACAUCACG [gtspaired],-0.787
11,GUGUGGUGUGUUGGCAUCUAACACAUCACG [gtspaired],-1.02
12,UUUUUUUUUUGAGACGGCAUCCGUCUCCGG [tttttgagapaired],0.654
13,UUUUUUUUUUGAGAUCGAAUCGAUCUCCUG [tttttgagapaired],0.16
14,GUGUGGUGUGUUGGCGCCUAACACACCGCA [gtspaired],-0.315
15,UUUUUUUUUUGAGAUGGACUCUAUCUCCAG [tttttgagapaired],0.188
16,UUUUUUUUUUGAGACGGAUACCGUCUCCAG [tttttgagapaired],0.421
17,UUUUUUUUUUGAGACGGACCCCGUCUCCUA [tttttgagapaired],0.82
18,UUUUUUUUUUGAGAUCGACGCGAUCUCCUA [tttttgagapaired],0.335
19,GUGUGUGGUGUUGGCGUCUAACACCACGCG [gtspaired],-0.56
20,UUUUUUUUUUGAGAGGGUAUCCUUCUCCAG [tttttgagapaired],0.0112
21,UUUUUUUUUUGAGACGGGAGCCGUCUUCUG [tttttgagapaired],0.438
22,UUUUUUUUUUGAGACGGAACCCGUCUCCAG [tttttgagapaired],0.343
23,GUGUGUUGUGUUGGCCUCUAACACAGCGCG [gtspaired],-0.734
24,UUUUUUUUUUGAGACGGAGACCGUCUUCUG [tttttgagapaired],0.716
25,UUUUUUUUUUGAGAUGGGUGCCAUUUCCGG [tttttgagapaired],0.727
26,UUUUUUUUUUGAGACUGGUACAGUCUCCAG [tttttgagapaired],0.361

row,Sequence,binding signal (log2 fold change)
1,GUGGUGUGUGUUGGAGUCUAACACACAUCA [gtspaired],-0.581
2,UUUUUUUUUUGAGAUCGUAACGAUCUCCUA [tttttgagapaired],0.205
3,UUUUUUUUUUGAGAACGGGUCGUUCUCCAG [tttttgagapaired],0.411
4,UUUUUUUUUUGAGACUGAGGCAGUUUCCUA [tttttgagapaired],0.572
5,GGUGGUUGUGUUGGAGCCUAACACAGCUAC [gtspaired],-0.701
6,UUUUUUUUUUGAGAGCGAACCGCUCUCCUG [tttttgagapaired],0.0868
7,GUGUGGUGUGUUGGCAUCUAACACACUACG [gtspaired],-0.779
8,UUUUUUUUUUGAGAUCGGGACGAUCUUCUA [tttttgagapaired],0.321
9,UUUUUUUUUUGAGAGGGCUCCCCUCUCCGG [tttttgagapaired],0.502
10,GGUGUGUGUGUUGGUCCCUAACACAUACGC [gtspaired],-0.383
11,UUUUUUUUUUGAGAUCGGAGCGAUCUCCGG [tttttgagapaired],0.457
12,UUUUUUUUUUGAGAGGGCUCCCCUUUCCGG [tttttgagapaired],0.689
13,UUUUUUUUUUGAGACGGAUACCGUCUCCUA [tttttgagapaired],0.0795
14,GUGUGUGGUGUUGGUGUCUAACACCGCGCG [gtspaired],-0.675
15,UUUUUUUUUUGAGAGGGGCGCCCUCUCCUA [tttttgagapaired],0.667
16,UUUUUUUUUUGAGACUGGGACAGUCUCCGG [tttttgagapaired],0.237
17,UUCCUUCUUCCUCCAGGGGAGGGAGAGGGA [ctspaired],-0.484
18,GUGGUGUGUGUUGGUAUCUAACACACGCCG [gtspaired],-0.543
19,UUUUUUUUUUGAGAAGGGAUCCUUCUCCGG [tttttgagapaired],-0.134
20,GGUGGUGGUGUUGGUCCCUAACACCAUCGC [gtspaired],-0.448
21,UUUUUUUUUUGAGAGCGACGCGCUCUUCUG [tttttgagapaired],0.425
22,UUUUUUUUUUGAGACUGCUACAGUCUCCUA [tttttgagapaired],0.374
23,UUCCUCUCUCCUCCGAUGGAGGGGGGAGGA [ctspaired],-0.47
24,UUUUUUUUUUGAGAGUGACGCACUCUCCAG [tttttgagapaired],0.255
25,GUGGUUGGUGUUGGAGCCUAACACCAGCCG [gtspaired],-0.712
26,UUUUUUUUUUGAGACCGACUCGGUCUUCUA [tttttgagapaired],0.245

row,Sequence,binding signal (log2 fold change)
1,GUGUGGUGUGUUGGCCCCUAACACAUCGCG [gtspaired],-0.279
2,GUGGUUGGUGUUGGCUUCUAACACCAGCCG [gtspaired],-0.853
3,GUUGUGUGUGUUGGCGCCUAACACACGCAG [gtspaired],-0.408
4,UUUUUUUUUUGAGACGGUGUCCGUCUCCUG [tttttgagapaired],1
5,UUUUUUUUUUGAGAUGGCGGCCAUCUUCUG [tttttgagapaired],0.768
6,GGUUGGUGUGUUGGACUCUAACACAUCAGC [gtspaired],-0.667
7,UUUUUUUUUUGAGACGGCUACCGUUUCCGG [tttttgagapaired],0.517
8,GUGGUUGGUGUUGGCAUCUAACACCAGCCG [gtspaired],-0.707
9,UUUUUUUUUUGAGAGCGGGUCGCUCUCCUA [tttttgagapaired],0.151
10,GUGUGUUGUGUUGGAGCCUAACACAACGCA [gtspaired],-0.444
11,UUUUUUUUUUGAGAGGGAGACCCUCUUCUG [tttttgagapaired],0.395
12,UUUUUUUUUUGAGAGCGAACCGCUCUCCUA [tttttgagapaired],0.237
13,UUUUUUUUUUGAGACGGGAUCUGUCUCCUA [tttttgagapaired],0.539
14,UUUUUUUUUUGAGACGGUAGCCGUCUCCUG [tttttgagapaired],0.779
15,GGUGGUGGUGUUGGCGCCUAACACCGCUAC [gtspaired],-0.599
16,UUUUUUUUUUGAGACUGCAACAGUCUUCUG [tttttgagapaired],0.586
17,GUGGUGUGUGUUGGUUCCUAACACAUACCG [gtspaired],-0.736
18,GUUGUGUGUGUUGGACCCUAACACACGCAA [gtspaired],-0.167
19,UUUUUUUUUUGAGACCGAAGCGGUCUCCGG [tttttgagapaired],0.431
20,UUUUUUUUUUGAGACGGACACUGUCUCCGG [tttttgagapaired],0.785
21,GGUGUGUGUGUUGGACUCUAACACAUAUAC [gtspaired],-0.738
22,GUGUUGUGUGUUGGCGUCUAACACACAGCA [gtspaired],-0.86
23,GGUGGUUGUGUUGGUCUCUAACACAGCUAC [gtspaired],-0.87
24,UUUUUUUUUUGAGACGGGGGCUGUCUUCUA [tttttgagapaired],0.969
25,UUUUUUUUUUGAGACGGUAUCCGUUUCCGG [tttttgagapaired],0.529
